The text below walks through data of PubChem BioAssay AID1508623 (National Center for Advancing Translational Sciences (NCATS), 2021).

Among all 48,000 compounds or so, about 450 (0.94%) were called active. Inconclusive results (about 19%) are left out. Calls follow the shape of the dose curve; as a rule, active = well fitted inhibition curve with a large enough effect; inconclusive = small, poorly fitted or top-dose-only effect; inactive = no such curve, though single readings can be large or run the other way. The list shows a part of the results.

This test in a line: Primary qHTS for Identification of Small Molecule Inhibitors of Huntingtin Promoter Activity. Also: nearly all actives have a fitted effect of over 50% in size. The conditions noted are these: HEK293 HTT promoter firefly luciferase reporter (activity 0% = vehicle and -100% = no light), 24 h; series mostly up to 57.5 µM; activity change, negative = inhibition: at the top concentration. In outline:
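Quantitative HTS used concentration series of up to 57.5 uM final on HEK293 luciferase reporter cells, 24 h at 37 degrees C. Readout was Dual-Glo firefly luminescence.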
For the compound `CC(Sc1nc(-c2ccccc2)c(C#N)c(=O)[nH]1)C(=O)Nc1ccc(F)cc1` (configuration not stated), the “activity change, negative = inhibition” value was inactive: -13.4%.

Consider `COc1ccc(N(CC(=O)N2CCN(c3cc(C)ccc3C)CC2)S(=O)(=O)c2c(C)noc2C)cc1`, for which the “activity change, negative = inhibition” value was inactive: -6.45%.

Consider `Cc1ccc(-n2ncc3c(NNC(=O)c4ccccc4C)ncnc32)cc1`, for which the “activity change, negative = inhibition” value was inactive: -22.3%.

For the compound `COc1ccc(-c2c(C)nn3c(N4CCC(C(=O)NCCC(C)C)CC4)cc(C)nc23)cc1OC`, the “activity change, negative = inhibition” value was inactive: -8.36%.

As to `CC(C)CCn1c(SCc2ccc(F)cc2Cl)nc2ccsc2c1=O`, the “activity change, negative = inhibition” value is inactive: -4.97%.

On to `CC1=C(C(=O)Nc2ccccc2)C(c2ccc(C(=O)O)cc2)n2nc(SCC(=O)c3ccc(C)cc3)nc2N1` (configuration not stated), for which the “activity change, negative = inhibition” value is inactive: 8.64%.

`CCc1ccc(-c2[nH]c3c(c2-c2c(-n4cccc4)n(C)c(=O)n(C)c2=O)c(=O)n(C)c(=O)n3C)cc1`: the “activity change, negative = inhibition” value was inactive: -4.23%.

Consider `Cc1ccc(Cn2c(=O)c3c(nc4n3CCN4c3cc(C)cc(C)c3)n(C)c2=O)cc1`, for which the “activity change, negative = inhibition” value is inactive: 70.5%.

On to `COc1ccc(-c2nc(CCNC(=O)c3cc(OC)c(OC)c(OC)c3)cs2)cc1`, for which the “activity change, negative = inhibition” value is inactive: -6.55%.

Regarding `COCCCNC(=O)c1ccc(NC(=O)N2CCCCc3ccccc32)cc1`, the “activity change, negative = inhibition” value was inactive: -15.3%.

For `CCCN1CCN(CC2=C(C(=O)OCC)C(c3ccc(Cl)cc3)NC(=O)N2)CC1` (configuration not stated), the “activity change, negative = inhibition” value is inactive: -4.33%.

In the case of `COc1ccc(Cl)cc1NC(=O)CCCn1c(=O)c2cccn2c2cccnc21`, the “activity change, negative = inhibition” value was inactive: -15.2%.

`COC(=O)c1c(NC(=O)c2ccc(S(=O)(=O)N3CCCCC3C)cc2)sc2c1CCN(C(C)C)C2` (configuration not stated): the “activity change, negative = inhibition” value is inactive: -9.31%.

Consider `CCOC(=O)N1CCc2c(sc(NCc3ccc(OC)c(Br)c3)c2C(=O)Nc2cc(OC)ccc2OC)C1`, for which the “activity change, negative = inhibition” value was inactive: -9.21%.

Turning to `CCOC(=O)c1ccccc1NC(=O)N(Cc1ccc(C)cc1)Cc1cccn1-c1nnc(N2CCCC2=O)s1`, the “activity change, negative = inhibition” value is inactive: -5.46%.

As for `CCC(C)n1c(=N)c(S(=O)(=O)c2ccc(C)cc2)cc2c(=O)n3cc(C)ccc3nc21` (configuration not stated), the “activity change, negative = inhibition” value is inactive: 0.835%.

As to `COc1cccc(NC(=O)Cn2c(=O)n(CCCC(=O)NCc3ccc4c(c3)OCO4)c(=O)c3ccccc32)c1`, the “activity change, negative = inhibition” value is inactive: -11.8%.

In the case of `Cc1ccc(CNC(=O)c2c(-c3ccccc3F)noc2C)o1`, the “activity change, negative = inhibition” value was inactive: -15.8%.

As to `COC(=O)c1nnn(CC(=O)NC(=O)Nc2ccccc2F)c1C(=O)OC`, the “activity change, negative = inhibition” value was inactive: -11.8%.

In the case of `Cc1noc(NS(=O)(=O)c2ccc(NC(=O)c3ccc(Br)cc3)cc2)c1C`, the “activity change, negative = inhibition” value is inactive: -10.3%.

Regarding `CCN1CCC(N(Cc2ccc(F)cc2)C(=O)Nc2cccc(C(F)(F)F)c2)CC1`, the “activity change, negative = inhibition” value is inactive: -29.2%.

With `CCc1ccccc1Nc1nn2c(=O)c3ccc(C(=O)Nc4ccc(OC)cc4)cc3nc2s1`, the “activity change, negative = inhibition” value was inactive: -24.7%.

`O=C(CSc1nc2ccccc2nc1Cc1ccccc1)N1CCN(c2ccccc2)CC1`: the “activity change, negative = inhibition” value is inactive: -2.43%.

Regarding `Cc1cccc(NC(=O)NCCOCCn2c(=O)oc3ccccc32)c1C`, the “activity change, negative = inhibition” value was inactive: -2.88%.

As for `COc1ccc(CCC(=O)NCc2nc3cccnc3n2Cc2ccccc2)cc1`, the “activity change, negative = inhibition” value is inactive: 0.543%.

For `CC(C)Oc1ccc(C(=O)Nc2ccc(-c3nc4ccccc4s3)cc2)cc1`, the “activity change, negative = inhibition” value was inactive: 7.09%.

Consider `COc1ccccc1C(=O)Nc1cc(-c2ccc(C)cc2)no1`, for which the “activity change, negative = inhibition” value was inactive: 54.8%.

With `Cc1ccccc1Cn1c(CN2CCN(c3cc(Cl)ccc3C)CC2)nc2c1c(=O)[nH]c(=O)n2C`, the “activity change, negative = inhibition” value was inactive: 2.18%.

With `Cc1ccc(Cl)cc1NC(=O)CCCN1C(=O)CCn2nc(-c3cn(C)c4ccccc34)cc21`, the “activity change, negative = inhibition” value is inactive: -6.86%.

On to `CCOc1ccc(CCNC(=O)CCn2c(=O)c3cccn3c3cccnc32)cc1`, for which the “activity change, negative = inhibition” value is inactive: -7.47%.

For the compound `COc1ccc(N2CCN(C(=O)c3cc4cc5ccc(Cl)cc5nc4o3)CC2)cc1`, the “activity change, negative = inhibition” value is inactive: 5.93%.

Regarding `COc1ccc(C)cc1S(=O)(=O)NCC(c1ccc(N(C)C)cc1)N1CCc2ccccc21` (configuration not stated), the “activity change, negative = inhibition” value is inactive: -28.5%.

`CCC(=O)Nc1ccccc1-c1nc2ccccc2n(C(C)C(=O)Nc2ccc(OC)cc2)c1=O` (configuration not stated): the “activity change, negative = inhibition” value is inactive: 47%.

As for `O=C(O)c1ccc(N2C(=O)c3[nH]nc(-c4ccccc4)c3C2c2cccc(F)c2)cc1` (configuration not stated), the “activity change, negative = inhibition” value is inactive: -1.14%.

As for `CN(c1ccccc1)c1ncnc2c1cnn2C`, the “activity change, negative = inhibition” value is inactive: 23.5%.

Take `Cc1cc(NC(=O)N2CCC(CN3CCOCC3)CC2)ccc1Br`: the “activity change, negative = inhibition” value was inactive: -13.1%.

Take `COc1cccc(C2C(=O)N(C3CCCCC3)CC(=O)N2Cc2ccc(Cl)cc2)c1` (configuration not stated): the “activity change, negative = inhibition” value was inactive: -19.6%.

Turning to `CCc1ccc(C2C(C(=O)Nc3ccc(Cl)cc3)=C(C)Nc3ncnn32)cc1` (configuration not stated), the “activity change, negative = inhibition” value is inactive: -27.1%.

Regarding `Cc1ccc2c(c1)C(=O)OC(C(=O)Nc1ncc(Cc3ccccc3)s1)C2` (configuration not stated), the “activity change, negative = inhibition” value is inactive: 6.79%.

As for `CCNc1nc(Oc2ccc(=O)n(-c3ccccc3)n2)nc(N(C)C)n1`, the “activity change, negative = inhibition” value was inactive: -0.141%.

Consider `CCOc1cc(C(=O)Nc2ccc(-c3nc4cc(Cl)ccc4o3)cc2)cc(OCC)c1OCC`, for which the “activity change, negative = inhibition” value is inactive: 9.55%.

For `CC(=O)c1cccc(-n2c(=O)c3c4c(sc3n(CC(=O)c3ccc(Cl)cc3)c2=O)CN(C(C)=O)CC4)c1`, the “activity change, negative = inhibition” value was inactive: -4.08%.

Turning to `CC1CCCCN1C(=O)CSc1n[nH]c(-c2ccccc2)n1` (configuration not stated), the “activity change, negative = inhibition” value was inactive: 41.4%.

Take `O=C(Nc1cccc(Cl)c1)c1cc(-c2ccccc2)on1`: the “activity change, negative = inhibition” value is inactive: 2.1%.

Consider `COc1ccc(CNC(=O)CCCc2nnc3n(CCC(C)C)c(=O)c4sccc4n23)cc1`, for which the “activity change, negative = inhibition” value is inactive: -4.22%.

For the compound `Cn1cc(C(=O)NCCc2ccc(Cl)cc2)c(=O)c2cc(S(=O)(=O)N3CCOCC3)ccc21`, the activity change, negative = inhibition was inactive: 9.37% [at 11.5 µM].

As to `O=c1[nH]c(C2CCCN(S(=O)(=O)c3ccccc3Cl)C2)nc2c1nnn2Cc1ccc(OC(F)(F)F)cc1` (configuration not stated), the “activity change, negative = inhibition” value was inactive: -14.9%.
